# Reference: the supplement of paper PMC12632987
# Over roughly 2,300 sequences, “median log2 fold change of GCK-ALFA target abundance (FLAG IP / Myc IP barcode read proportion)” has its median near 0.095; the lowest 2% begin near -0.47. This is one part of the list.
# B1: LC3A_28_752 (protein)
# chain: MDVAEEVARAIAEAKAAAAAGEEAVITLTVPAGATEEDVELFIAGMREIAEIAKDMKSMTIVVDIESGVPEEHINRLMDEGEEIEKKYPNVTVIFALDED
# B2: LC3A_45_1925 (protein)
# chain: MWEATLDVLVPRELAEKAYATAKELMAELEAEHGPDLRVDWATLDESYAASKDEEDVYLEIRIYHPDEQVALDAADRLEDELNAALGGKASSIISLKKLP
# B3: LC3A_3_1629 (protein)
# chain: MEEAVEELLEELRAAGHDEETLEAFREVAELLLERGFEEALKVLIEEMRKLKDAPSEILLDALQEVLEVLKTEDLNEEETIEKIKEIFTVARNESEIIEL
# B4: LC3A_free_8_2479 (protein)
# chain: MNQKLVDKATELLEELEEEVRKKAKELGLEELDILLLELEIGSVIQEIYDNSDKSPEEIYKTTKEGLKRIIEEAKKISEELAKLVKEKAEEILKELEKLL
# B5: LC3A_free_46_2346 (protein)
# chain: VLAEIEIDLLHEDEEVLKKAVEEIVKEAKKIAEKYNLEVEIKVEIEKLEDGSYFARIEIKLKGESKEDVEKAVNELINKIDEIAKKYDVAAIISYEIEEE
# B6: LC3A_free_8_2458 (protein)
# chain: NKDELVTTISNLYDEFEEKLEAKLKELGFSQEDINYISVLIGEAEMAVMETAEDDPSKTLEVAKEEFEEIIKELAKLSPELAKFAKELAEEVLKKIEEAL
# B7: LC3A_28_1205 (protein)
# chain: SKSKENAEKALEEAKKAAEEGEEKVIEVKVEGGITEEETKYVIEKIEKIAEIAAKNPKISIVIDISGGVAEEHKNYIIDKAEELEKKYPNVNIIIALEEE
# B8: LC3A_28_1303 (protein)
# chain: SALAAQFAAARAEVEAAAARGEPVVVTIDITAEQAETELDTILAQLRALGEVASRAPGATIIVDLDEDVDPENRTRILDTMEEIEERYPNVTVIAAIEDK
# B9: LC3A_13_331 (protein)
# chain: TITIEATTAEELREKSFAALEAHPGETINITVTVTNEEEAEAVAEVLGEIIRKAAEKGNSLNITIKGKEDLVNYVAVEAGAEIYEHIDKVDVTITTEVIP
# B10: LC3A_28_891 (protein)
# chain: MNPLDSAREALEKVKKAVAEGSTEPLVLEVDVPSDEEELEKLLELLEELAEEASKLKGVTIILDISEDVSQELRDKVIDHAEELEEKYPNVTVIIALPES
# B11: LC3A_3_1781 (protein)
# chain: AEARIAELLAALEAAGASPETIAAVRAAAEALRARGYEEALATFVEEMRRLLGLPDEIRLAFAQEVLRLIEENDLSEEELTEEIRRLARLARLEAEIEEL
# B12: LC3A_23_624 (protein)
# chain: KVKLTVEVDFIGTEEETEENIKKIKEKVEEIKKKYEDEILEYKLEIEREKLPDGRILVHVKITIITNGNEEKAKEIKDELVDFIDKNIPDGVISYEIEKL
# B13: LC3A_free_0_2099 (protein)
# chain: MTTVVEVLGIIDNENDKEAAEAIAEELKKLGKKLSEEKGWKVTVELKKVNGSYVITVTIEGKGMSIEEGLEIADEIADKIERLAKEHGVEVTIYTSVYEE
# B14: LC3A_147_407 (protein)
# chain: YRTEVDIDILSKNAEEEIVEFFEKLKKELEEKGYKVELEIEVEELEGGETYIRVRIIVEAETKEEAEEAANFILDEIDKLEEELKDKILGSIISVEIIDE
# B15: LC3A_free_46_2312 (protein)
# chain: VKANITIDLLHEDKEVLEKAVKELVEKIKEIAKKYNLKVEIKVEFSKDEDGSHFARIEVTLTGETKEDIEAAVNEIIDAIDEIAEKYGVSYIISVEIIDE
# B16: LC3A_free_8_2474 (protein)
# chain: KVQELVNEITKLLDELEEKTTKKAKELGVDPLKILELELEIGAAKADIISASDKSIEEVRKIVEEEMEEILKIAKELGEEIAKLVEETKKKILELIEKAE
# B17: LC3A_28_701 (protein)
# chain: SAIEEQLARAEEIVEEAVAAGEDALIEITITPETTAEDVDLILERVREMAERMSEVGKLYVVVDVEAGVAQENITRLADGLDEIEEEIPTVSAVIALDED
# B18: LC3A_147_448 (protein)
# chain: MKYEIDVDALFRNDRELAEELAEKLKEIAEKYGGEVEVELREEQVSPTTTEYYLDVTITFEDEEKAKEAEKEISELLDETAKAHPDKFLGAILSFEEVEE
# B19: LC3A_147_485 (protein)
# chain: MEVKIDLLVKGKETVEELKKKMEETKKELEKEGIKVKLEIKVEEIEPGVYYVEITAKIEAPTKEEEKKAAQKVIDTVEEFEEENKDKVLGSLISVEETEK
# B20: LC3A_28_1041 (protein)
# chain: SALEADAEAALAEAERQLAEGDEAVVTLTVEDLPTEEAAAIVRAFLERLRELSREHGGKKIHVVIDYDGDQETLDALADIAEEAEEEDPNLTVIIAYDDK
# B21: LC3A_28_993 (protein)
# chain: SALEEQLEAALAEAKAAAAAGEPTVITIKVPGSANQEDIELVIEKLEEIAEILKDVPGSAIVIDLDGKLDQELRDLIIDKAEEIEEKYPNVTVIIALDEE
# B22: LC3A_3_1763 (protein)
# chain: MEEFIEEAAKRLKEAGASEELIEVASEALRLLLERGLEETAEEFVEALLELLKKSEELALDLARDVLELLRTSTLSPEELAAAVREEINAALAEAEIEEL
# B23: LC3A_147_499 (protein)
# chain: YKVVVDIDILMKNKPELVEKLVEEIKKELEKKGFKVEYEIKHEKVDENTVYSHITITIEAPTKEEAEEAANLVIDMIDEFEEKNKEDILGSLISVEIEEV
# B24: LC3A_free_39_2186 (protein)
# chain: SAAEAEAALAELLALAAEEGEETKALAEELVALIGRRLEHLKRLLELARRLKEEGVDLREALREALALARELAAQGKSPEEIAEAVLEHLQDRIDLIPID
# B25: LC3A_free_8_2510 (protein)
# chain: NKEALAKTASTKFDEIEELVEKLGKEDGLSELEILDILLVIGAEHQDVLDAIEDGPEAALKKAEEAKKEILKELKPLSEESRKKIEEKLDELIEELKKII
# B26: LC3A_17_543 (protein)
# chain: KEELKEKLEKLLKELEKLVKELEKYDPEKAKELKKKLKEAKKLLKEGKLEEAAKLLAEAAREAAEAFEELEPEKGVEASVLSMEASGLELEAEGILLKLE
# B27: LC3A_3_1361 (protein)
# chain: MEELIEETLAFLREAGKSEETLEAVRETLLALKERGYEEAAKTFVELLRELKDLPDELLLAFAEDVLEAVTKEDLSEEELIEFIKEEAAVARHEAEIIEL
# B28: LC3A_17_592 (protein)
# chain: SEEIKKEIEELLKELKKLIKKMKELGIPEAKEIEKLLKEAEKALKEGDLKKAAELLAKAADLAADALEEKEEELGSEASVLEMEANGLELRAIGILLKLD
# B29: LC3A_3_1490 (protein)
# chain: REELLERMRAVLEARGASPEQIAEVLEAAERLLELGYEETVETLIELFEANPDLDPLDIVTAVLITLEVAEEEDLSEEELVERAREIFENVREIEALDEN
# Biological target: MAP1LC3A, Q9H492
# Assay: median log2 fold change of GCK-ALFA target abundance (FLAG IP / Myc IP barcode read proportion) (log2 ratio); each designed protein is fused to an ALFA-tag nanobody in HEK293 cells to bring the named protein to FLAG-tagged glucokinase (GCK); Myc marks an untargeted standard; higher = target protein stabilised (more abundant)
# Settings: target protein: 3xFLAG-MCP-GCK-ALFA reporter; HEK293 landing pad (RPLP)
# Summary of the method: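 Sequencing of reverse-transcribed, amplified circular RNA barcodes from anti-FLAG and anti-Myc immunoprecipitates provided the readout for an ALFA-nanobody-fused binder library recombined into HEK293 landing-pad cells. Those cells were induced with 2 μg mL^−1 doxycycline, transfected with a plasmid expressing a FLAG-tagged target and a Myc-tagged standard, and lysed after 48 h. Target abundance is the per-binder median log2 ratio of FLAG to Myc barcode read proportions. Only barcodes at a proportion of ≥10^−7 in both replicates and binders with ≥3 barcodes per replicate were kept, with a 10^−6 pseudocount added before the two replicates were pooled.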
row,Binder,median log2 fold change
1,B1,-0.0377
2,B2,-0.101
3,B3,0.295
4,B4,0.28
5,B5,-0.0805
6,B6,0.179
7,B7,0.106
8,B8,0.266
9,B9,0.289
10,B10,-0.154
11,B11,0.24
12,B12,-0.0862
13,B13,-0.379
14,B14,-0.124
15,B15,-0.0148
16,B16,0.318
17,B17,-0.383
18,B18,-0.322
19,B19,0.0781
20,B20,0.0383
21,B21,-0.291
22,B22,0.21
23,B23,-0.0118
24,B24,0.302
25,B25,0.0552
26,B26,0.312
27,B27,0.16
28,B28,-0.636
29,B29,-0.342
